Results: PubChem BioAssay (NCATS)
This is one part of the list. Shown are side measurements of this screen, not its main read-out; they come without a call. The note in brackets gives the kind of curve behind each potency; many fits are weak.

assay: qHTS drug screen for cell cycle checkpoint inhibitors in PARPi-resistant BRCA-mutant ovarian cancer cell lines. (AID 1963452); settings: PEO1/OlaR viability, CellTiter-Glo luminescence, 96 h; measured here: PEO1 parental viability
Summary of the method: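 PEO1, PEO4 and PEO1/OlaR ovarian cancer cells, 600 per well, exposed 96 h at 37C to a dilution series. Viability read by CellTiter-Glo luminescence, normalized to DMSO and empty wells; activity summarized as Z-AUC.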
Tags tell the direction and shape of the fitted curve.

SMILES | AC50
CCCC(CCC)C(=O)Nc1ccn([C@@H]2O[C@H](CO)[C@@H](O)C2(F)F)c(=O)n1 | 1.1 µM [falling, full curve]
CO[C@@H]1[C@@H](O)[C@H](O)[C@@H](n2c3c(Cl)cccc3c3c4c(c5c6cccc(Cl)c6[nH]c5c32)C(=O)NC4=O)O[C@H]1CO | 0.049 µM [falling, full curve, poor fit]
CC1=C(C)C(=O)C(C(CCCCCC(=O)O)c2ccccc2)=C(C)C1=O (stereo not given) | 0.871 µM [rising, partial curve, poor fit]
O=C(NCC(=O)N1CCCC1)Nc1ccc2cnccc2c1 | 9.77 µM [rising, partial curve, poor fit]
O=C(Nc1ccc(S(=O)(=O)N2CCOCC2)cc1)c1cc(Cl)ccc1NS(=O)(=O)c1ccc(Cl)s1 | 24.5 µM [falling, single point]
Cc1cnc(C(=O)O)c[n+]1[O-] | 15.5 µM [rising, partial curve]
Cc1cc(Oc2ccc3nc(COc4ccc(CC5SC(=O)NC5=O)cc4)n(C)c3c2)cc(C)c1N (stereo not given) | 27.5 µM [falling, single point]
C[C@@H](O)[C@H]1C(=O)N2C(C(=O)O)=C(S[C@@H]3CN[C@H](CNS(N)(=O)=O)C3)[C@H](C)[C@H]12 | 0.0977 µM [rising, full curve]

same assay, conditions: PEO1/OlaR viability, CellTiter-Glo luminescence, 96 h; measured here: PEO4 viability

SMILES | AC50
CN[C@@H](C)C(=O)N[C@H](C(=O)N1CCC[C@H]1C(=O)Nc1snnc1-c1ccccc1)C1CCCCC1 | 6.16 µM [falling, partial curve, poor fit]
CONC(=O)c1ccccc1Nc1cc(Nc2cc(C)nn2C(C)C)ncc1Cl | 15.5 µM [falling, partial curve, poor fit]
Fc1ccc(-c2csc3ncnc(NCc4ccc5c(c4)OCO5)c23)cc1 | 13.8 µM [falling, partial curve]
CC1(C)CN(C(=O)c2ccc(-c3cccc4nc(NC(=O)C5CC5)nn34)cc2)C1 | 0.549 µM [rising, full curve, poor fit]
CC[C@H](NC(=O)[C@H](CS(=O)(=O)CC1CC1)N[C@@H](c1ccc(F)cc1)C(F)(F)F)C(=O)C(=O)NC1CC1 | 12.3 µM [rising, partial curve, poor fit]
Cc1noc(C)c1-c1ccc(-c2cc(C(N)=O)c(NC(N)=O)s2)c(O[C@H]2CCNC2)c1 | 27.5 µM [falling, single point]
CNS(=O)(=O)c1ccc2c(c1)/C(=C/c1[nH]c3c(c1CCCN1CCN(C)CC1)CCCC3)C(=O)N2 | 27.5 µM [falling, single point]
C[C@H]1[C@H](C)CC[C@]2(C(=O)O)CC[C@]3(C)C(=CC[C@@H]4[C@@]5(C)C[C@@H](O)[C@H](O)[C@@](C)(CO)[C@@H]5CC[C@]43C)[C@H]12 | 27.5 µM [falling, single point]
Cn1cc(-c2cnc3ccc4ccc(CS(=O)(=O)NCc5ccccn5)cc4c(=O)c3c2)cn1 | 19.5 µM [falling, single point]
O=C(NCCCNC(=O)c1ccc[nH]c1=O)c1cc(-c2ccccc2)on1 | 15.5 µM [falling, single point]
Cn1cc(-c2ccc(-c3cncc(Cl)c3N3CCC4(CCNC4=O)CC3)cc2)cn1 | 0.219 µM [falling, full curve]
[O-][n+]1cccc(-c2nc3c(Cl)cccc3cc2[C@@H](Nc2ncnc3cccnc23)C(F)(F)F)c1 | 0.138 µM [falling, single point]
O=C(CN1C(=O)C2(CCCC2)NC[C@H]1c1cc(F)cc(F)c1)Nc1ccc2c(c1)C[C@@]1(C2)C(=O)Nc2ncccc21 | 0.0039 µM [rising, full curve, poor fit]
CC(C)(C#N)c1cc(Cn2cncn2)cc(C(C)(C)C#N)c1 | 0.219 µM [rising, full curve, poor fit]
Cc1nnc(C[C@@H]2C=C(c3ccc(Cl)cc3)c3ccccc3-n3c(C)nnc32)o1 | 3.09 µM [rising, partial curve, poor fit]
O=C(NCc1ccccc1)[C@H](Cc1ccccc1)NC(=O)[C@H]1O[C@@H]1C(=O)NCCc1ccc(O)cc1 | 24.5 µM [falling, single point]
CCn1c(=O)c(-c2ccc(-c3cncs3)cc2Cl)cc2cnc(Nc3ccc(N4CCN(C)CC4)cc3)nc21 | 19.5 µM [falling, single point]
